Assay results: the supplement of paper PMC3656093
± gives the standard deviation of the averaged measurements. Over roughly 1,900 compounds, “CD40L-induced NF-kB luciferase activity, plate-corrected, relative to DMSO (0) and IKK inhibitor VII (-100) controls” has its median near 0.032; the lowest 2% begin near -26. Some of the results follow.

tested on: BL2-NFkB-Luc; test: CD40L-induced NF-kB luciferase activity, plate-corrected, relative to DMSO (0) and IKK inhibitor VII (-100) controls (% normalized activity); higher = more NF-kB reporter activity (less inhibition); conditions: 9.4 µM; stimulus: tCD40L 64 ng/ml; 4.5 h
Experimental: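 BL2 B cells with a stable NF-kB response-element luciferase reporter (BL2-NFkB-Luc), 384-well. Cells were pre-incubated with compound at 9.4 uM for 1 h at 37 C, then stimulated with 64 ng/ml trimerized CD40L for 4.5 h; luciferase was read with Steady-Glo. Signal was normalised per plate in Genedata (median DMSO neutral control = 0, median IKK inhibitor VII at 50 uM = -100) with Assay Median plate-pattern correction; duplicate plates.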

Row | Structure (SMILES) | CD40L-induced NF-kB luciferase activity
1 | Cc1ccccc1OCCSc1nc2ncnc(N)c2[nH]1 | -2.76 ± 6
2 | COc1ccc2cc(C3(C)NC(=O)NC3=O)ccc2c1 (stereo not drawn) | 0.164 ± 0.37
3 | Clc1ccc2c(c1)[C@H]1OCC[C@H]1[C@@H](c1ccco1)N2 | 33.8 ± 0.96
4 | CC12CCC(C(=O)N3CCc4ccccc43)(CC1=O)C2(C)C (stereo not drawn) | -7.25 ± 2.2
5 | NC(=O)N1c2ccccc2CC(=O)c2ccccc21 | 0.783 ± 0.77
6 | CCOC(=O)c1ccc(NC(=S)NCCc2ccccc2F)cc1 | -7.23 ± 1.8
7 | CCOC(=O)c1ccc(N2C(=O)C(CC(=O)NC)N(CCc3ccc(OC)c(OC)c3)C2=S)cc1 (stereo not drawn) | 2.55 ± 3.1
8 | COc1ccc(C2=CC(=O)C=CC2=O)cc1 | -5.93 ± 5.3
9 | O=C(c1ccco1)N1CCCN(Cc2nc(-c3ccc4c(c3)OCO4)no2)CC1 | 2.92 ± 0.25
10 | CC(C)c1ccc(OCc2ccc(C(=O)O)o2)cc1 | -32.6 ± 4.2
11 | O=C(O)c1cc(-c2ccc3c(c2)OCO3)nc2ccc(Br)cc12 | 9.08 ± 4
12 | COc1cc(NS(=O)(=O)c2ccc(N)cc2)nc(OC)n1 | -4.2 ± 6.9
13 | COc1cc(C=NCC2OCCc3ccccc32)cc(OC)c1 (stereo not drawn) | -1.7 ± 1.9
14 | C[C@]12CC[C@H]3[C@@H](CCC4=CC(=O)CC[C@@]43C)[C@@H]1CC[C@@H]2C(=O)CO | -4.85 ± 1.2
15 | O=Cc1ccc(N2CCCCC2)cc1 | 1.07 ± 7.8
16 | COc1ccc2c(c1)C=CC1(O2)N(CCO)c2ccccc2C1(C)C (stereo not drawn) | -18.1 ± 0.26
17 | CC12COC3(C(=O)Nc4ccc(F)cc4)CC1CCC32C (stereo not drawn) | -5.78 ± 3.7
18 | CC(C)Cc1ccc(C(C)C(=O)Nc2ccc(O)cc2)cc1 (stereo not drawn) | -6.17 ± 0.94
19 | CC(C)OC(=O)CC1C(=O)NCCN1C(=S)NC(=O)c1ccccc1Cl (stereo not drawn) | 2.03 ± 2.2

Row | Structure (SMILES) | CD40L-induced NF-kB luciferase activity
20 | CC(=O)NCCCCCCNC(C)=O | 0.434 ± 5.7
21 | Cc1oc2cc(O)ccc2c(=O)c1Oc1ccccc1Br | 1.5 ± 1.3
22 | O=C(CC(C(=O)O)c1c[nH]c2ccccc12)c1ccccc1 (stereo not drawn) | 11.7 ± 0.38
23 | CC(=O)N(C(C)=O)c1nc2nc(C)cc(C)n2n1 | 6.34 ± 1.5
24 | COc1cc2cc(C(=O)O)[nH]c2c(OC)c1OC | 1.43 ± 0.11
25 | Cc1nc(C)c(C)nc1C | 0.583 ± 3.1
26 | Cc1ccc(C=NNC(=O)C2(C)CC2(Br)Br)cc1 (stereo not drawn) | 3.28 ± 7
27 | Nc1nnc(CSCc2ccc(Cl)cc2Cl)s1 | 11.4 ± 2.5
28 | O=C(/C=C/c1ccc2c(c1)OCCCO2)c1ccc2ccccc2c1O | 44.2 ± 0.67
29 | C=CCOC(=O)C1=C(C)NC(=O)NC1/C=C/c1ccccc1OC (stereo not drawn) | -0.888 ± 0.046
30 | CC(=O)O[C@]1(C(C)=O)CC[C@H]2[C@@H]3C=C(C)C4=CC(=O)CC[C@]4(C)[C@H]3CC[C@@]21C | -4.48 ± 6.2
31 | CC(=O)/C=C/c1ccc(C)o1 | 1.5 ± 2.1
32 | COc1ccc2c(c1)c(=O)oc1cc3occ(C(C)(C)C)c3cc12 | -6.35 ± 7.7
33 | COc1ccccc1CCn1cnc2c3cc(C)ccc3n(C)c2c1=O | 0.526 ± 4.1
34 | Nc1nnc(-c2cccc(Cl)c2Cl)c(N)n1 | 0.794 ± 0.59
35 | CC1CCCC(C)N1NC(=O)c1ccc(Cl)c(S(N)(=O)=O)c1 (stereo not drawn) | 4.34 ± 1.3
36 | CC1(C)Cc2ccccc2-c2n[nH]c(=S)n21 | -9.23 ± 2.8
37 | OCC1CCN(Cc2cn(Cc3ccccc3)nc2-c2cc3ccccc3o2)CC1 | -4.25 ± 3.1
38 | C(=C/c1nccc2c1[nH]c1ccccc12)/c1ccc2c(c1)OCO2 | 41 ± 3.5
